Assay results published in the supplement of paper PMC4604168 (melanoma cell lines).
The other results are listed elsewhere or left out. Most values come without repeats; read them as rough.

Tests used:
Experiment in all cases: cell count relative to DMSO control; melanoma cells; higher = more viable cells
Settings in all cases: library dose: low library concentration; 72 h
[1] = tested on: COLO792
[2] = tested on: COLO800
[3] = tested on: COLO829
[4] = tested on: G361
[5] = tested on: IPC-298
[6] = tested on: IST-MEL1
[7] = tested on: LB2518-MEL
[8] = tested on: LOXIMVI
[9] = tested on: MEL-HO
[10] = tested on: MZ2-MEL
[11] = tested on: MeWo
[12] = tested on: RPMI7951
[13] = tested on: RVH-421
[14] = tested on: SkMel28
[15] = tested on: SkMel30
[16] = tested on: SkMel5
[17] = tested on: UACC257
[18] = tested on: UACC62
[19] = tested on: WM115
[20] = tested on: WM1716
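Also: cell number obtained by counting DAPI-stained nuclei in high-throughput microscope images with image analysis software, screen run in 1,536-well plates.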

Row | SMILES | cell count [1] [%] | cell count [2] [%] | cell count [3] [%] | cell count [4] [%] | cell count [5] [%] | cell count [6] [%] | cell count [7] [%] | cell count [8] [%] | cell count [9] [%] | cell count [10] [%] | cell count [11] [%] | cell count [12] [%] | cell count [13] [%] | cell count [14] [%] | cell count [15] [%] | cell count [16] [%] | cell count [17] [%] | cell count [18] [%] | cell count [19] [%] | cell count [20] [%]
1 | COC(=O)c1sccc1S(=O)(=O)Nc1ccc(Nc2ccccc2)cc1OC + O=c1cc(-c2cccc3c2Sc2ccccc2S3)oc(N2CCOCC2)c1 [KU55933] (first compound 1 µM, partner dose 1 µM) | 111 | 121 | 98.2 | 85 | 96.1 | 99.6 | 127 | 127 | 88.4 | 102 | 97.3 | 88.3 | 118 | 97 | 107 | 93.8 | 103 | 108 | 101 | 98.6
2 | COC(=O)c1sccc1S(=O)(=O)Nc1ccc(Nc2ccccc2)cc1OC + Cc1cc([N+](=O)[O-])ccc1NS(=O)(=O)c1cc(Cl)ccc1Cl [FH535] (first compound 1 µM, partner dose 1 µM) | 95.9 | 89.5 | 111 | 96.3 | 94.9 | 84.7 | 122 | 97.9 | 85.5 | 95.8 | 107 | 99.3 | 102 | 91.8 | 98.8 | 83.7 | 91.8 | 110 | 91.5 | 94.2
3 | O=S(=O)(c1ccccc1)N(CC(F)(F)F)c1ccc(C(O)(C(F)(F)F)C(F)(F)F)cc1 + COc1cc(N2CCC(N3CCN(C)CC3)CC2)ccc1Nc1ncc(Cl)c(Nc2ccccc2S(=O)(=O)C(C)C)n1 [NVP-TAE684] (first compound 1.4 µM, partner dose 0.08 µM) | 103 | 93.4 | 96.3 | 93.3 | 93.8 | 101 | 91.6 | 98.8 | 97.1 | 99.7 | 94 | 107 | 108 | 93.4 | 102 | 70.8 | 83 | 82.3 | 96.5 | 96.1
4 | COc1ccc(COc2ccc(Cc3cnc(N)nc3N)cc2OC)cc1 + O=c1cc(-c2cccc3c2Sc2ccccc2S3)oc(N2CCOCC2)c1 [KU55933] (first compound 1 µM, partner dose 1 µM) | 115 | 130 | 65.3 | 93.4 | 100 | 105 | 115 | 121 | 102 | 97.3 | 99.5 | 103 | 109 | 79.6 | 101 | 102 | 101 | 98.3 | 89.8 | 92.7
5 | COC(=O)c1sccc1S(=O)(=O)Nc1ccc(Nc2ccccc2)cc1OC + CCN(CC)CCCCNc1ncc2cc(-c3cc(OC)cc(OC)c3)c(NC(=O)NC(C)(C)C)nc2n1 [PD173074] (first compound 1 µM, partner dose 0.1 µM) | 94.7 | 96.2 | 113 | 100 | 94.2 | 96 | 104 | 151 | 79.3 | 91.8 | 113 | 101 | 103 | 90.7 | 89.3 | 92.8 | 83.6 | 92.5 | 108 | 109
6 | O=S(=O)(c1ccccc1)N(CC(F)(F)F)c1ccc(C(O)(C(F)(F)F)C(F)(F)F)cc1 + O=C(O)C(=O)Nc1sc2c(c1C(=O)O)CCNC2 [TCS401] (first compound 1.4 µM, partner dose 1.66667 µM) | 111 | 114 | 98 | 98.6 | 90.8 | 103 | 91.6 | 139 | 109 | 105 | 87.1 | 119 | 111 | 109 | 106 | 107 | 87.9 | 96.4 | 89.6 | 116
7 | Oc1cc(-c2nc(-c3ccccc3)[nH]c2-c2ccncc2)ccc1Cl + O=C(O)C(=O)Nc1sc2c(c1C(=O)O)CCNC2 [TCS401] (first compound 0.2 µM, partner dose 1.66667 µM) | 90.2 | 87.1 | 101 | 96.1 | 93.6 | 97.7 | 90.1 | 150 | 93.9 | 87.3 | 109 | 112 | 106 | 92.8 | 99.3 | 98.1 | 86.3 | 71.1 | 72.6 | 121
8 | O=C(O)C(=O)Nc1sc2c(c1C(=O)O)CCNC2 + Cc1cc([N+](=O)[O-])ccc1NS(=O)(=O)c1cc(Cl)ccc1Cl [FH535] (first compound 1.66667 µM, partner dose 1 µM) | 89.9 | 132 | 86 | 89.1 | 97.7 | 94 | 109 | 91.5 | 90.6 | 99.6 | 93 | 94 | 86.7 | 82.1 | 78.4 | 85.3 | 94 | 97.5 | 88.2 | 89.6
9 | N#Cc1c(O)c2c(-c3ccc(-c4ccccc4O)cc3)csc2[nH]c1=O + COc1ccc(COc2ccc(Cc3cnc(N)nc3N)cc2OC)cc1 [GW2580] (first compound 2 µM, partner dose 1 µM) | 110 | 101 | 84 | 94.2 | 99.3 | 97.9 | 108 | 110 | 69.9 | 97.8 | 97.4 | 111 | 88.1 | 104 | 97.3 | 98.3 | 95.1 | 110 | 106 | 100
10 | O=S(=O)(c1ccccc1)N(CC(F)(F)F)c1ccc(C(O)(C(F)(F)F)C(F)(F)F)cc1 + COc1cc2ncnc(Nc3ccc(Oc4ccccc4)cc3)c2cc1OC [SrcI1] (first compound 1.4 µM, partner dose 2 µM) | 103 | 117 | 89.9 | 103 | 93.8 | 104 | 121 | 100 | 110 | 103 | 96.5 | 112 | 108 | 88.3 | 111 | 88.9 | 98.8 | 90.4 | 99.4 | 111
11 | COc1ccc(COc2ccc(Cc3cnc(N)nc3N)cc2OC)cc1 + Cn1cc(/C=C2\C(=O)Nc3cccnc32)c2ccccc21 [GW441756] (first compound 1 µM, partner dose 0.4 µM) | 88.2 | 130 | 93.6 | 109 | 99.3 | 103 | 115 | 120 | 103 | 90.5 | 107 | 105 | 95.1 | 84.6 | 94.9 | 79.8 | 72.2 | 94.6 | 106 | 105
12 | Oc1cc(-c2nc(-c3ccccc3)[nH]c2-c2ccncc2)ccc1Cl + Oc1nc(-c2ccc(C(F)(F)F)cc2)nc2c1CSCC2 [XAV939] (first compound 0.2 µM, partner dose 2 µM) | 86.8 | 96 | 84.1 | 84.9 | 88.5 | 86.8 | 91.2 | 139 | 79.7 | 80.9 | 98.4 | 108 | 79.2 | 73.3 | 96.8 | 75.5 | 76.9 | 64.3 | 66.7 | 69.9
